Experimental data: article PMC4336329 (PLoS ONE, 2015)
The whole screen tested about 310,000 compounds, of which about 2,200 (0.71%) showed an effect of 50% or more. The effect is printed as a negative number. Some of the results follow.

Biological target: human ether-à-go-go-related gene (hERG) potassium channel (human, UniProt Q12809)
Test: primary screen, population patch clamp on CHO cells stably expressing hERG

Sequence of human ether-à-go-go-related gene (hERG) potassium channel (Q12809 whole entry, looked up): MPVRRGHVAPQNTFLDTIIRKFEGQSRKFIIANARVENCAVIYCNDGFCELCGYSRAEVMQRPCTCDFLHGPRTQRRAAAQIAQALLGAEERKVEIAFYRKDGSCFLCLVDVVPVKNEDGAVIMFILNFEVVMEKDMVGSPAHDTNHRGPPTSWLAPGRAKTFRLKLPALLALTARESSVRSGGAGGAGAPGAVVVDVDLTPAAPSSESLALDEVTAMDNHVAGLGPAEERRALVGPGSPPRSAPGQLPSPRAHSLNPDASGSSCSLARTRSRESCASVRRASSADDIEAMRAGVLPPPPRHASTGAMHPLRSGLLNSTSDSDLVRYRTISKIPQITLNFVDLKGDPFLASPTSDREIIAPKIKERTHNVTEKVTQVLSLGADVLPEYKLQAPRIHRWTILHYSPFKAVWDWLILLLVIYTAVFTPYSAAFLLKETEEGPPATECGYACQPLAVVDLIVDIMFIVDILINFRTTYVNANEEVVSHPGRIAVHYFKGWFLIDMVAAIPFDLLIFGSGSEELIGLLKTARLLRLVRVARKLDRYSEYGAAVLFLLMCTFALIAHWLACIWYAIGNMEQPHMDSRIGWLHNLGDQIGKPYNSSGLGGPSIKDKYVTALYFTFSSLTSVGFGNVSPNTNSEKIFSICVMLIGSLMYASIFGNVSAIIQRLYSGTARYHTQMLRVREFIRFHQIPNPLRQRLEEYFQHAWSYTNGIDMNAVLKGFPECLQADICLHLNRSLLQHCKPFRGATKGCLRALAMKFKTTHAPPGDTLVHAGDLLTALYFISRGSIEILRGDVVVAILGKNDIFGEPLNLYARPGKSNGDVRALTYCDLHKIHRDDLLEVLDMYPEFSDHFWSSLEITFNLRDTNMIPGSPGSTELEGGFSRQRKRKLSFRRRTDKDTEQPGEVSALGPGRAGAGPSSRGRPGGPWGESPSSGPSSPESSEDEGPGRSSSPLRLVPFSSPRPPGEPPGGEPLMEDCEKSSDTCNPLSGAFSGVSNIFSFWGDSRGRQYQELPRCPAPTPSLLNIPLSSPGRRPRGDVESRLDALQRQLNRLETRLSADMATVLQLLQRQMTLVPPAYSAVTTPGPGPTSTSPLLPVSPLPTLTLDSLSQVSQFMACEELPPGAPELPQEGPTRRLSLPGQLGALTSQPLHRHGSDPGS

| SMILES | hERG current change (%, negative = inhibition) at 1uM [%] |
| --- | --- |
| CCOC(=O)CSCC(=O)Nc1nnc(-c2cccc([N+](=O)[O-])c2)s1 | -1.37 |
| Cc1occc(=O)c1OCc1ccccc1 | 8.23 |
| CCCNC(=O)C(CC)NS(=O)(=O)c1ccc(OC)cc1 (stereo not shown) | 16.1 |
| CCOc1ccc(CCNC(=O)CSc2nn(-c3ccc(C)c(Cl)c3)c(=S)s2)cc1OCC | 9.09 |
| COc1ccc(NC(=O)CSc2nc(-c3ccncc3)nn2CC(=O)N2CCCC2)cc1 | 7.64 |
| Nc1c(NCCc2ccccc2)c2ccccc2oc1=O | 11.4 |
| COc1ccccc1Cn1c(CCCO)nc2ccccc21 | 1.69 |
| O=S(=O)(Nc1cccc(-n2cnnn2)c1)c1ccc(Cl)cc1 | 16.2 |
| COc1cc2ccccc2cc1C(=O)OCC(=O)N1CCOCC1 | 13.6 |
| COc1cc(/C=C2\C(=N)N3N=C(S(=O)(=O)CC(C)C)SC3=NC2=O)ccc1OC(=O)c1ccco1 | 18.3 |
| CC(C)OCCCNC(=O)c1ccc(NC(=O)C2CCCO2)cc1 (stereo not shown) | 4 |
| CCN1CCN(Cc2ccc(NC(=O)c3ccc(C)c(NC(=O)C4=NN(c5ccccc5)C(=O)C4)c3)cc2C(F)(F)F)CC1 | 8.97 |
| CC(C)NC(=O)Cn1cc(C(=O)c2ccccc2)c2ccccc21 | 15.5 |
| Cc1ccc(NC(=S)NC2CCN(Cc3ccccc3)CC2)cc1C | 5.07 |
| CSC1=NCCN1C(=O)c1ccc(Br)o1 | 8.83 |
| COCCn1nnnc1SCC(=O)c1ccc(F)cc1 | 11.2 |
| O=Cc1c(N2CCCCC2)nc2ccccn2c1=O | 12.5 |
| CCCCC1CCC(/C(N)=N/O)CC1 (stereo not shown) | 9.78 |
| COc1ccc2nc(N3C(=O)/C(=C/c4ccccc4)NC3=S)sc2c1 | -0.531 |
| CCOC(=O)c1cn2nc(Oc3cccc(C(F)(F)F)c3)ccc2n1 | 10.5 |

| SMILES | hERG current change (%, negative = inhibition) at 1uM [%] |
| --- | --- |
| Cc1noc(NS(=O)(=O)c2ccc(NC(=O)NC(C)(C(F)(F)F)C(F)(F)F)cc2)c1C | 10.8 |
| O=C(NC1CCCCC1)C1CCCN(S(=O)(=O)c2cccc3cccnc23)C1 (stereo not shown) | -0.44 |
| O=C1CC(C(=O)O)S/C(=N\NC(=O)c2ccccc2)N1 (stereo not shown) | 9.19 |
| COc1ccc(N2C(=O)/C(=C/c3ccc(C)o3)C(=O)NC2=S)c(OC)c1 | 12.6 |
| Cc1cc(SCn2nnc3ccccc3c2=O)nc2ccccc12 | 9.54 |
| Cc1cc2ncn(CC3CC3(Cl)Cl)c2cc1C (stereo not shown) | 11.9 |
| CCOc1c(N2CCCCC2)c(=O)c1=O | 12.2 |
| Cc1ccc2c(c1)N(CC(=O)N1CCCCC1)C(=O)C(C)O2 (stereo not shown) | 14.6 |
| CCOC(=O)Cc1csc(NC(=O)CSc2nnc(-c3ccncc3)o2)n1 | 15.4 |
| O=C(O)C#Cc1cccc2ccccc12 | 16.3 |
| CCn1c(SCC(=O)O)nnc1-c1cccnc1 | 10.6 |
| O=C(O)c1ccc2c(c1)C(=O)N(c1cccc(-c3nc4ccccc4s3)c1)C2=O | 8.68 |
| CCOc1cc(/C=N\NC(=O)c2ccc(NC(=O)C(C)(C)C)cc2)ccc1OC(=O)c1ccc(C)cc1 | 6.6 |
| Cc1cc(=O)[nH]c2c(C)c(N)ccc12 | 11.9 |
| CC(C)NC(=O)C1=NN(c2ccccc2)C(=O)CC1 | 13.6 |
| Cc1cc(C(=O)CSc2n[nH]c(N)n2)c(C)n1-c1cccc(F)c1 | 1.37 |
| COc1ccc(C(=O)[C@H]2[C@H]3C(=O)N(c4ccccc4)C(=O)[C@H]3C3C=CC=NN32)cc1 (stereo partly shown) | 13.3 |
| CCN(CC)c1ccc(-c2n[nH]c(=S)n2-c2ccccc2C)cc1 | 9.01 |
| COc1ccccc1N(C(=O)c1ccco1)C(C(=O)NC1CCCCC1)c1cc(OC)c(OC)c(OC)c1 (stereo not shown) | 10.2 |
| Cc1ccc(NC(=O)CCC(=O)OCC(=O)c2ccc(Oc3ccc([N+](=O)[O-])cc3)cc2)cc1 | 11 |

| SMILES | hERG current change (%, negative = inhibition) at 1uM [%] |
| --- | --- |
| O=C(CN(Cc1ccc(F)cc1)S(=O)(=O)c1ccccc1)N1CCCCC1 | -6.32 |
| O=C(NCc1cccnc1)Nc1ccc(Br)cc1Cl | 14.2 |
| CCOc1nc(-c2ccccc2O)nc2ccccc12 | 8.03 |
| CCCCN(C)CCCNC(=O)CC1Oc2ccccc2NC1=O (stereo not shown) | -4.45 |
| CC(C)(C)NC(=O)C(c1ccncc1)N(C(=O)CNC(=O)c1ccco1)c1ccc2c(c1)OCO2 (stereo not shown) | 8.54 |
| CCC(C)c1ccccc1NC(=O)c1[nH]c(C)c(C(C)=O)c1C (stereo not shown) | 5.85 |
| Cc1nnc(SCC(=O)Nc2nnc(SCc3cccc(Br)c3)s2)s1 | 5.79 |
| COCCCN=C1NN=C(c2cc(C)n(-c3ccccc3F)c2C)CS1 | -3.62 |
| COc1ccc(Br)cc1C(=O)Nc1ccccc1-c1ccccc1 | -0.0436 |
| C=CCc1cccc2cc(C(=O)N(CC)CC)c(=O)oc12 | 0.254 |
| C=CCOC(=O)C1=C(C)NC(=S)C(C#N)(CC=C)C1c1ccccc1Cl (stereo not shown) | 11.2 |
| Nc1nc(N)c(N=O)c(OCC2CCCCC2)n1 | 15.4 |
| N#Cc1c(NC(=S)NC(=O)c2ccccc2)sc2c1CCC2 | 5.9 |
| O=C1CC(Sc2ccc(Cl)cc2)C(=O)N1Cc1ccncc1 (stereo not shown) | 3.72 |
| C/C(=N/NC(=O)c1cc(-c2ccccc2)nc2c(Cl)cccc12)c1cccnc1 | 16 |
| COC(=O)c1ccc(/C=N/Nc2nc(N3CCCCC3)nc(N3CCCCC3)n2)cc1 | 6.02 |
| COCc1cc(N2CCN(c3ccccc3F)CC2)nc(-c2ccccc2)n1 | 12.1 |
| COc1cccc(OCCNc2cc(N3CCCCC3)ccc2[N+](=O)[O-])c1 | 12.6 |
